US20020058295A1, “Method of screening candidate compounds for susceptibility to oxidative metabolism” (priority 1998, published 2002)

Substrate: COc1ccc2c(c1)[C@]13CCCC[C@@H]1[C@H](C2)N(C)CC3
Assay: not read
Conditions: other: CYP3A4OR; DCFH-DA 2.5 μM; NADPH 1 mM; Michaelis-Menten fit; pH 7.4

B1: CYP3A4 (Homo sapiens) (protein)
chain: MALIPDLAMETWLLLAVSLVLLYLYGTHSHGLFKKLGIPGPTPLPFLGNILSYHKGFCMFDMECHKKYGKVWGFYDGQQPVLAITDPDMIKTVLVKECYSVFTNRRPFGPVGFMKSAISIAEDEEWKRLRSLLSPTFTSGKLKEMVPIIAQYGDVLVRNLRREAETGKPVTLKDVFGAYSMDVITSTSFGVNIDSLNNPQDPFVENTKKLLRFDFLDPFFLSITVFPFLIPILEVLNICVFPREVTNFLRKSVKRMKESRLEDTQKHRVDFLQLMIDSQNSKETESHKALSDLELVAQSIIFIFAGYETTSSVLSFIMYELATHPDVQQKLQEEIDAVLPNKAPPTYDTVLQMEYLDMVVNETLRLFPIAMRLERVCKKDVEINGMFIPKGVVVMIPSYALHRDPKYWTEPEKFLPERFSKKNKDNIDPYIYTPFGSGPRNCIGMRFALMNMKLALIRVLQNFSFKPCKETQIPLKLSLGGLLQPEKPVVLKVESRDGTVSGA
Km: 24.2 ± 9.2 µM
